In the supplement of paper PMC11417369:
± gives the standard deviation of the averaged measurements. The list shows a part of the results.

System: PfAP2-EXP AP2 domain (GST-tagged)
Assay: gcPBM binding intensity (ln(normalized median fluorescence intensity)); higher = stronger DNA binding
In short: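 After 1 h on an Agilent 4 × 180k array of primer-extended double-stranded 36-bp intergenic genomic probes and negative controls, bound GST-tagged P. falciparum DNA-binding domains were detected with Alexa488 anti-GST antibody and scanned at 488 nm. The domains had been expressed in E. coli, and binding took place in 1× PBS with 1% milk, 0.2 mg/ml BSA, 0.5% salmon testes DNA and 0.03% Triton X-100. Binding intensity is the highest Masliner-normalised natural-log median intensity across replicate spots of either probe orientation.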

| Sequence | gcPBM binding intensity (ln) |
| --- | --- |
| ATTATATATAAATATACACACATATATAAAATACAT [CACACA_site5298] | 8.39 ± 0.28 |
| TACATACAGATATATACACACATATAAAATATAGAT [CACACA_site6319] | 8.57 ± 0.4 |
| AAGAGAAAAATATGGTTGCACTAAAAATATATATTT | 8.48 ± 0.25 |
| TTAACAAAATATAGCACACATAAATATATATTTATG [CACACA_site351] | 8.66 ± 0.33 |
| TTTTCTAAATATTATAGTACTCTTAATAATATTAAC [XGTACX_site4222] | 8.31 ± 0.29 |
| TAAAAAATTAATAAAGTGCATAAATATTACAATATT | 8.32 ± 0.18 |
| AATATTAAAATATAAACACACAAAATTCAATTATAT [CACACA_site5971] | 8.42 ± 0.35 |
| GACATATTAGAAGGGTGTACATACTTTTAATCATTT [XGTACX_site1698] | 8.48 ± 0.27 |
| ATTCATATATTTATTGCATGCAAAGTAAAATAAATA [TGCATGCA_site307] | 10.23 ± 0.099 |
| TACATATATATATGTATATATATATATATATAAATA [XGTACX_negctrl_site351] | 8.57 ± 0.18 |
| ATGAATAAATGAACATGTACATATATATATATATTA [XGTACX_site5005] | 8.73 ± 0.26 |
| AAATGTGCATTATGTTGTACAGTCGAAATTTTTTTT [XGTACX_site3812] | 8.49 |
| ACATAACTGATATATACACACAATACAAATATAGAT [CACACA_site7328] | 8.82 ± 0.38 |
| ATAAAAGGAATATTTGCATGTGGTAGTACATAACAT [TGCATGCA_site978] | 9.04 ± 0.028 |
| TTTTCTAAAATATTCATAATAAATCAAAAAAAAAAA [GTGCAC_negctrl_site320] | 8.39 ± 0.45 |
| CATATATCATAAATATGTACGAAATAAAAGAATCAT [XGTACX_site942] | 8.79 ± 0.45 |
| TAATATTTTTATTATTAGAATTGTATATGTTTAATA [CACACA_negctrl_site1833] | 7.78 ± 0.26 |
| TATAAATATGTATATACACACTTTTAATATTCATAA [CACACA_site7856] | 8.37 ± 0.38 |
| TTTTCTTACTATTGTAGTACAATATTATATTCTTTT [XGTACX_site1925] | 8.78 ± 0.3 |
| TGCGTATTCTTATTAGGTACACATATTCGTGATAAT [XGTACX_site5681] | 8.62 ± 0.35 |
| ATAAAAAAATAAAACACACACATATAGATTATAGAT [CACACA_site7343] | 8.71 ± 0.55 |
| GATTTATATATATAAAATAATTGAATATTTTCTTTT [CACACA_negctrl_site801] | 8.11 ± 0.3 |
| TAATTTGAAAAATTGTGTACTCATAAAATAAATAAA [XGTACX_site2138] | 8.36 ± 0.37 |

| Sequence | gcPBM binding intensity (ln) |
| --- | --- |
| TTTATTTTTCATAATTGTACAAAAATAAATGGAAAC [XGTACX_site5144] | 8.94 ± 0.48 |
| ATAGATGATATACGTAAACACACAAATAAAAAAAAT [CACACA_site9095] | 8.9 ± 0.6 |
| TACAAATATAGACACACACACATATATATATATATA [CACACA_site585] | 10.2 ± 0.37 |
| TATATACCACATTGTTGTACGACACATTTACATTTT [XGTACX_site8370] | 9.02 ± 0.38 |
| TTCTTTTAAAGGTATACATGCGCATGGATTTTTCAT [TGCATGCA_site223] | 9.29 ± 0.39 |
| ACTGTCGTTTTAAAGAGTACATAAAATATTAAATTA [XGTACX_site3589] | 8.29 ± 0.23 |
| ATGTCTTTGAAAAAAAGTACTTAAAATTATAAAAAT [XGTACX_site147] | 8.66 ± 0.28 |
| AAAACTATTAATGCAAAAAATAAAATATAATAATAA [XGTACX_negctrl_site524] | 8.57 ± 0.35 |
| AATTAAAAAATTATCACACATATATATATATATATA [CACACA_site5789] | 10.3 ± 0.52 |
| TCAAAGCACAGATACACACACATATATATATATATA [CACACA_site287] | 10 ± 0.42 |
| TAAGGTTCATTAAAGTGTACACATAAATACCGTAAC [XGTACX_site8212] | 9.06 ± 0.27 |
| TGTAATAATTATTGCACGCACACAAAAACCTATAGA [CACACA_site2932] | 8.94 ± 0.3 |
| ATTCTGAATGTTATGCGTACATATTAATCCTATTTA [XGTACX_site1216] | 8.63 ± 0.28 |
| AAGTAAATATAATAAGGTACACATAAATAAATAAAT [XGTACX_site1740] | 8.89 ± 0.57 |
| GGAAACACGATATATACACACATATTTATATTTATA [CACACA_site6250] | 8.57 ± 0.28 |
| AGAAAAGGAAAATAAACATGCAAAAATAATATTAAA [TGCATGCA_site337] | 9.1 ± 0.28 |
| TCCAAATAAATATATTGTACAGAATTATTGATACCT [XGTACX_site327] | 8.27 ± 0.33 |
| ATGTTGTTATAAAGAGTGCAACGTATATGTATCCTT [GTGCAC_site9935] | 8.71 ± 0.18 |
| TAAACATTGTAAAGGAGTACAAAATTTTTTTTATGA [XGTACX_site7757] | 8.37 ± 0.45 |
| AATAATAAAAAATACACACACATATATATATATTAC [CACACA_site3464] | 8.71 ± 0.4 |
| TTTTTTTTTTTGTATCGTACATTTATAATGTTTATA [XGTACX_site6804] | 8.61 ± 0.54 |
| AACATACAGAAACACACACACACACCCACACCCACA [CACACA_site493] | 8.63 ± 0.55 |
